Test results: PubChem BioAssay AID493131 (Broad Institute, 2011)
Hit rate of the full screen: of about 340,000 compounds, about 3,300 (0.97%) were called active. This list was built around the results that the source calls inconclusive (neither active nor inactive); the mix of calls is not that of the screen.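 How the source made its calls: active means mean activation above about 17%, with every replicate also reaching it (limit read from the data, passing the limit was not always enough); inconclusive means only one of the two conditions met; inactive means the rest.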

target: Protein FosB (Mus musculus) (UniProt P13346); experiment: enhancers of mouse delta FosB DNA binding – biochemical, fluorescence polarization, TAMRA-CDK5 oligo, single point, primary screen (AID 493131); details: purified delta FosB, at 25 µM, stronger effect = higher value, percent of positive-control signal above neutral wells;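 further: fluorescence polarization rise as delta FosB binds a TAMRA Cdk5 AP-1 oligo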
Chain of UniProt P13346 (P13346 whole entry, looked up): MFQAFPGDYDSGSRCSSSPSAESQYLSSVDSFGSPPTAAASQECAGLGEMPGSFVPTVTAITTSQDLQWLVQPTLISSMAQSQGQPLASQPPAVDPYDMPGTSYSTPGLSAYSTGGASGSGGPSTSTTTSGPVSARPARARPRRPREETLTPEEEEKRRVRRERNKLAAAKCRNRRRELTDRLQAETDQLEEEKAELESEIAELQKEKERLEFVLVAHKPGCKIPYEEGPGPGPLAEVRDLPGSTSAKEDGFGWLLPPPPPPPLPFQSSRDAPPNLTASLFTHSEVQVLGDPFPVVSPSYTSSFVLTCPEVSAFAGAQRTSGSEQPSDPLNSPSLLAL

SMILES | activation
O=C(OCc1cc(=O)n2c(n1)sc1ccccc12)c1ccc(O)cc1O | inconclusive: 16.9%
COc1cc(/C=N/NC(N)=O)ccc1OCC(=O)Nc1ccc(C)c(C)c1 | inconclusive: 17.1%
O=C(N/N=C/c1ccc(O)cc1)c1ccc(COc2cc(Cl)ccc2Cl)o1 | inconclusive: 17.9%
Cc1csc(NC(=O)c2cc(-c3ccccc3)nc3ccccc23)n1 | inconclusive: 17.5%
CCc1ccccc1NC(=O)CC1CS(=O)(=O)CC1CC(=O)Nc1ccccc1CC (configuration not stated) | inactive: 1.21%
Cc1cccc(NC(=O)c2ccc(S(=O)(=O)NCc3ccco3)cc2)n1 | active: 33.1%
CC(=O)Nc1ccc(NC(=O)c2ccc(-c3ccc([N+](=O)[O-])cc3)o2)cc1 | active: 29.2%
O=C(O)COc1ccc(/C=N/NC(=O)c2cn(-c3ccccc3)nc2-c2ccccc2)cc1 | inactive: -21.3%
C/C(CCc1ccc2c(c1)OCO2)=N\N=C(/N)SC1CC(=O)N(c2ccc(Cl)cc2)C1=O (configuration not stated) | inactive: -13.6%
O=C(CCCOc1ccc(Cl)cc1Cl)NNC(=O)c1ccc(NC(=O)c2ccccc2)cc1 | inconclusive: 36.7%
COc1cc(NC(=O)c2csc(-c3ccncc3)n2)cc(C(=O)Nc2cccc(C(F)(F)F)c2)c1 | inconclusive: 17%
CCOC(=O)c1nn(-c2ccc(F)cc2)c(=O)cc1OCC(=O)Nc1ccc(OCC)cc1 | inconclusive: 16.2%
Cc1ccc(S(=O)(=O)Nc2ccc(-c3cn4ccc(C)cc4n3)cc2)cc1 | inconclusive: 16.4%
COc1ccc(CCNC(=O)Cn2nc(C)n3nc(-c4ccccc4)cc3c2=O)cc1OC | inconclusive: 17.5%
O=C(Nc1ccccc1)c1cc(S(=O)(=O)N2CCSCC2)ccc1Cl | inconclusive: 17%
O=C(Cn1cnc2c(nnn2-c2cccc(F)c2)c1=O)Nc1ccc2c(c1)OCCO2 | inconclusive: 17.4%
COc1ccc(/C=N/NC(=O)c2c(C)nnn2-c2nonc2N)cc1OC | inactive: 5.6%
Cc1[nH]n(-c2ccccc2)c(=O)c1C(C[N+](=O)[O-])c1ccc(Cl)cc1 (configuration not stated) | inactive: -5.08%
O=C(COC(=O)c1cc(Br)ccc1O)Nc1ccc2c(c1)OCO2 | active: 43.5%
COc1ccc2nc(NC(=O)C3CCCN(S(=O)(=O)c4cccs4)C3)sc2c1 (configuration not stated) | inconclusive: 17.1%
COc1ccc(-c2cc(-c3nnc(COC(=O)c4ccc(O)cc4)o3)c3ccccc3n2)cc1OC | inconclusive: 18.4%

SMILES | activation
Cc1cc(C)cc(-n2nnnc2SCC(=O)Nc2cccc(NC(=O)c3ccco3)c2)c1 | inconclusive: 20%
CCCNC(=O)CN(CCc1ccccc1)S(C)(=O)=O | inactive: -0.769%
Cc1cc(Nc2cccc([N+](=O)[O-])c2)c2cccc(C)c2n1 | inconclusive: 16.2%
CCc1nnc(NC(=O)CSc2ccc(-c3nc4ccc(C)cc4[nH]3)cn2)s1 | inconclusive: 24.5%
NC(N)=NS(=O)(=O)c1ccc(NC(=S)NC(=O)/C=C/c2ccccc2)cc1 | active: 22.2%
O=C(COC(=O)c1ccccc1F)Nc1ccc2c(c1)OCCO2 | inactive: 1.1%
COc1ccc(CCNC(=O)c2sc(=S)n(C)c2N)cc1 | inactive: -6.26%
N#CC1=C(SCC(=O)Nc2ccccc2)NC(=O)CC1c1ccco1 (configuration not stated) | inactive: -1.15%
CCN(CCCNC(=O)CCCOc1cc(=O)n(C)c2ccccc12)Cc1ccccc1 | inactive: -7.51%
Cc1c(Cc2ccc3c(c2)OCO3)sc(NC(=O)c2ccccc2)c1C(N)=O | active: 38.5%
COc1ccc(NC(=O)Nc2ccc3c(c2)CC(=O)N([C@H](C)CO)C[C@@H](C)[C@H](CN(C)C(=O)Nc2ccccc2)O3)cc1 | inactive: 2.47%
O=C(Nc1ccc(Nc2ccncc2)cc1)c1ccc(Nc2ccnc3ccc([N+](=O)[O-])cc23)cc1 | inconclusive: 24.9%
N=c1c2c(ncn1Cc1ccco1)Oc1c(ccc3ccccc13)C2c1ccccc1 (configuration not stated) | inconclusive: 29.7%
Cc1ccc(C)c(OCC(=O)NNC(=O)c2ccc(NC(=O)C3CC3)cc2)c1 | inconclusive: 19.4%
Cc1cc(=O)oc2c(C)c(OCC(=O)N3CCN(C(=O)C4COc5ccccc5O4)CC3)ccc12 (configuration not stated) | inactive: -8.71%
O=C(C1CCC1)N1CCc2cc(S(=O)(=O)Nc3ccc4c(c3)OCCO4)ccc21 | inconclusive: 26.9%
Cc1cccc(C(=O)Nc2ccc(C(=O)Nc3ccc(O)cc3)cc2)c1 | inconclusive: 17.5%
CCc1ccc(NC(=O)Cn2nnc(C(=O)NCc3ccc4c(c3)OCO4)c2N)cc1 | inconclusive: 21.1%
CCOC(=O)c1c(C)[nH]c(C)c1C(=O)CSc1nnc(-c2ccc(OC(F)F)cc2)o1 | inconclusive: 20.7%
COc1ccc(N(CC(=O)NC2CCS(=O)(=O)C2)S(=O)(=O)c2ccc(Cl)c(Cl)c2)cc1 (configuration not stated) | active: 43.2%
CCc1ccc2nc3nc(C)cc(C)c3c(N)c2c1 | inconclusive: 17.9%

SMILES | activation
O=C(Cn1c2ccccc2c(=O)c2cc([N+](=O)[O-])ccc21)Nc1ccccc1Cl | active: 62.8%
CS(=O)(=O)N(CC(=O)NCc1ccco1)c1ccc(OCc2ccccc2)cc1 | inactive: -14.5%
COc1ccc(-c2nnc(SCC(=O)NNC(=O)c3ccc(C)cc3)o2)cc1 | inconclusive: 16%
CCc1nnc(NS(=O)(=O)c2ccc(NC(=O)c3cc(Cl)ccc3[N+](=O)[O-])cc2)s1 | inactive: -1.25%
O=C(CSc1cn(Cc2ccccc2)c2ccccc12)Nc1nccs1 | inactive: -12.7%
O=C(Nc1ccncc1)c1cc(-c2ccccn2)nc2ccc(Br)cc12 | inconclusive: 92%
CC(=O)Nc1cccc(NC(=O)c2ccccc2OCc2ccccc2)c1 | inconclusive: 18.9%
Cc1c(C)c2ccc(OCC(=O)Nc3ccccn3)cc2oc1=O | inconclusive: 18.7%
O=C(COC(=O)c1cc([N+](=O)[O-])ccc1NCc1ccccc1)NC1CCCCC1 | inconclusive: 27.7%
CCOC(=O)CCCCC(=O)c1[nH]c(=O)[nH]c1CSc1nnc2c3ccccc3n(C(C)C)c2n1 | inconclusive: 16.1%
CN(C)CCCN(C(=O)COc1ccc(Cl)cc1)c1nc2cc3c(cc2s1)OCCO3 | inconclusive: 19.4%
COc1cccc(/C=N/NC(=O)c2ccccc2NC(=O)c2ccco2)c1OC | inconclusive: 19.7%
Cc1cccc(NC(=O)Nc2ccc(Cl)c(Cl)c2)n1 | inconclusive: 16.6%
CCOc1ccc(C(=O)/C=C/Nc2ccc(S(=O)(=O)N=C(N)N)cc2)cc1 | active: 34.2%
Cc1ccc2c(C)nc(Nc3nc(CSc4nnnn4-c4ccccc4)cc(=O)[nH]3)nc2c1 | inconclusive: 22.9%
CCc1ccc(CNC(=O)CCn2nc(C)c3c(C)n(-c4ccccc4)nc3c2=O)cc1 | active: 73.4%
O=C(N/N=C/c1ccc2c(c1)OCO2)c1ccc(COc2cccc3cccnc23)cc1 | inconclusive: 20.7%
Nc1ccc2nc(-c3cccc(-c4nc5ccc(N)cc5[nH]4)c3)[nH]c2c1 | inconclusive: 25.1%
COc1ccc(Nc2nc(-c3ccccc3)nc3ccccc23)cc1S(=O)(=O)N1CCOCC1 | inconclusive: 23.9%
O=C(NCc1ccccc1)C(c1ccc(F)cc1)N(Cc1ccc2c(c1)OCO2)C(=O)Cn1nnc(-c2cccs2)n1 (configuration not stated) | inconclusive: 41.6%
COc1ccc2nc(/N=C(\N)NC(=O)Nc3ccccc3)nc(C)c2c1 | active: 52.1%

SMILES | activation
COc1ccc(-c2noc(N3CCC(C(=O)NCc4ccc(Cl)cc4)CC3)n2)cc1 | inconclusive: 18.4%
CCOc1ccccc1NC(=O)c1nnn(CC(=O)Nc2ccc3c(c2)OCO3)c1N | inconclusive: 19%
O=[N+]([O-])C(=C1Nc2ccccc2N1)/C(Cl)=C(/Cl)Br | inactive: 2.02%
Cc1cc(-c2csc(N)n2)c(C)n1-c1ccccc1 | inconclusive: 16.1%
CCOC(=O)c1c(C)[nH]c(C(=O)COC(=O)c2ccc(O)cc2O)c1C | inconclusive: 16.1%
O=C(Nc1ccc(Cl)cc1)NC1CCCC1Cc1ccco1 (configuration not stated) | inactive: -8.32%
Cc1ccc(S(=O)(=O)N2CCC(C(=O)Nc3nnc(-c4ccco4)s3)CC2)cc1 | inconclusive: 16.9%
O=C(Nc1cccc(-c2nc3cccnc3s2)c1)C1c2ccccc2Oc2ccccc21 | inconclusive: 40%
CN1CCN(S(=O)(=O)c2cccc(C(=O)Nc3sc4c(c3-c3nc5ccccc5[nH]3)CCCC4)c2)CC1 | inconclusive: 16.7%
NNc1nc(Nc2ccccc2)nc(Nc2ccccc2)n1 | active: 46.4%
CCN(CC)CCNc1ccc(C)c2sc3ccc(O)cc3c(=O)c12 | active: 41%
COc1ccc(C(C)=O)cc1CSc1nc2ccccc2c(=O)n1-c1cccc(C)c1 | active: 24.7%
CCCCN(C)CCNC(=O)c1cc(-c2cccnc2)nc2ccc(S(=O)(=O)N3CCC(C)CC3)cc12 | inconclusive: 21.9%
O=C(CC1S/C(=N/N=C/c2c[nH]c3ccc(OCc4ccccc4)cc23)NC1=O)Nc1ccccc1 (configuration not stated) | active: 32.5%
O=C(COC(=O)c1cccc(Br)c1)Nc1ccc2[nH]c(=O)[nH]c2c1 | inconclusive: 17.8%
CN(C)S(=O)(=O)c1cccc(C(=O)N2CCN(Cc3ccccc3)CC2)c1 | inactive: 1.19%
Cc1ccc(S(=O)(=O)N/N=c2\sc3ccccc3n2C)cc1 | inconclusive: 23.4%
COc1ccc([N+](=O)[O-])cc1NC(=O)c1ccc(Br)s1 | active: 58.7%
Cc1ccc(-c2cc(C(=O)N/N=C/c3c[nH]c4ccccc34)n[nH]2)o1 | inactive: -2.95%
